Reference: the supplement of paper PMC3334620
Over roughly 33,000 sequences, “E-score (-0.5 to 0.5)” has its median near -0.032; the highest 2% begin near 0.36. The list shows a part of the results.

Molecular target: T1, Sko1 (UniProt Q02100)
T1 sequence: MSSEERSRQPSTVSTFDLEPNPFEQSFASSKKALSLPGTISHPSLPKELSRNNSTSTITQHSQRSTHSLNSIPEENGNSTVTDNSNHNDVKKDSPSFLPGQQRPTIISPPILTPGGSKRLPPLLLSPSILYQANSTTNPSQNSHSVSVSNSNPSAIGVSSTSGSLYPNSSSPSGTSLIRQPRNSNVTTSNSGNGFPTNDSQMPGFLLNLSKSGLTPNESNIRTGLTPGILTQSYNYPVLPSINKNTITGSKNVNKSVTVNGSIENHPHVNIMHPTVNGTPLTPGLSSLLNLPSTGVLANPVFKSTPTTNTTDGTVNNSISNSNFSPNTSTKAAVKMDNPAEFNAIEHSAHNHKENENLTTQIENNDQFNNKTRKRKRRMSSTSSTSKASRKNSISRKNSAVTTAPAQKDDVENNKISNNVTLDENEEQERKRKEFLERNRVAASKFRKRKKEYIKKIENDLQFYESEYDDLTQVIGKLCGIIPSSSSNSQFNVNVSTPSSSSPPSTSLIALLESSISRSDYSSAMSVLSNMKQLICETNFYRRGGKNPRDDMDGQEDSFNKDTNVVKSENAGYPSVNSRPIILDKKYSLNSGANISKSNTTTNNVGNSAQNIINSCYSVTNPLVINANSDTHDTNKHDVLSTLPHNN
Assay: PBM E-score (8-mer binding enrichment) (E-score (-0.5 to 0.5)); higher = stronger / more preferred TF binding; most listed sequences are background and not binding sites
Conditions: protein concentration: 200 nM; construct: GST-full length
Procedure, shortened: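 Each ungapped eight-base word and its reverse complement, pooled, received an E-score from the Universal PBM Analysis Suite. Underlying scans, normalised with masliner, recorded fluorescent anti-GST bound to GST-tagged yeast transcription factors. These were applied at about 100-200 nM to universal all-10-mer Agilent arrays double-stranded by primer extension.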

Sequence	PBM E-score
CTATCCAG	-0.15
GTTTCGGA	0.0239
GGTAGCAC	-0.314
AGCATACA	0.107
CTCAAGCC	-0.143
CGGTGGAG	-0.292
GAGAGAGC	-0.214
CGGCCGAA	-0.118
AGCCTTAT	-0.105
GGGATCAA	-0.0379
GACGGACA	0.121
ATTGTCTC	0.0231
CGCCATGA	0.033
TACTGTAA	0.0851
TGAAACCA	-0.0489
CAACTCGA	0.078
AGTAGGCG	-0.194
CTATAGTA	-0.0415
ACGACTGA	0.0428
ATTTCAAA	0.136
GGTGGGAA	-0.145
CCTCCGCC	-0.271
CACGCGCA	0.154
AATAGCTG	0.0774
CGAGATGC	-0.0188

Sequence	PBM E-score
ATCCTTGA	-0.177
AATTTCCG	0.0523
ATATCAGG	0.0507
GGGACCCA	-0.357
ACCCTCAA	-0.295
AGACGTGA	0.312
AACTGAGC	-0.224
CCGATAGG	-0.14
CGTCATGC	0.469
ATCAATGG	-0.0791
AGACATGG	-0.0226
GTTTGTGA	0.174
AGGAGAAT	-0.0915
AGTTGATC	0.0555
ACTGCCAA	-0.0083
ACGAACGA	0.195
AGAATATC	-0.036
AAGGTCTC	-0.147
AACCCCTG	-0.362
TTCGCAAA	0.142
GCAACGAA	0.148
ATCTAAAC	0.0182
AATTGATG	0.217
AACAGGTT	-0.0299
AGTTCATG	-0.13

Sequence	PBM E-score
CAATCAGC	0.00606
CATGCGCC	0.0445
CCCAGCGC	-0.229
AATTGCAA	0.0646
ACCGACTG	-0.234
AACAAAAC	0.142
ATAACAGA	0.188
CAGTAGGA	-0.178
AAATCCTT	-0.118
AGGGTTGA	-0.0646
CACCGGTC	-0.344
TACCGGCA	-0.163
CTCGAATC	-0.112
CCCGGGCA	-0.386
AGACCGGG	-0.234
ACGCAAGG	0.316
CTACCTCA	-0.0201
AGCGCTAG	-0.16
CATGTCCG	-0.128
CCGGACGA	-0.204
CCTTCAGA	-0.0862
CACACGCG	0.104
GAGATTCC	-0.277
AATCTTCC	-0.236
ATGTTAGG	-0.0583

Sequence	PBM E-score
AGAAGTCT	-0.116
CCATTAGA	-0.162
ATCTAATG	0.0212
CACAAACA	0.15
CTACATTA	0.00265
AGAACACC	-0.0444
ACACAAGA	0.114
ATTACGAC	0.396
GAGTCCCA	-0.209
AGTTAGGG	-0.097
CCCGTTCC	-0.309
AAACTTAA	0.191
GACGCAGC	0.105
AATAGGAG	-0.0512
TAGAAAGA	-0.114
AGAAGCGC	-0.142
AATTGAAG	-0.0823
ACTAGGAG	-0.15
ACTCTTAC	0.138
CGGTCCGA	-0.204
AAGTGTAG	0.0389
AAAAAGTG	0.0802
ACAAGCAC	-0.0846
GTGTACGA	0.143
GCCCAGAC	-0.33

Sequence	PBM E-score
CCTGAAAA	0.0433
ATAGTGAT	0.138
CCGGTCGC	-0.241
AATAAGTA	0.139
GCGCCCTA	-0.204
AGATTTGA	0.144
AGTCTTGC	0.0878
ATCTTTCA	0.0738
AGTCCAAC	-0.152
GGGGTTCA	-0.358
AAGCCCTT	-0.126
AGGGGACG	-0.0256
CATACCCA	0.108
CTGGTTCA	-0.183
AGAACAAC	0.0231
CGACACTA	-0.0399
CATTTATA	0.206
GCCGTGGA	-0.183
CATTTGGA	-0.0269
AGAGTTCA	-0.277
CGGGGGGA	-0.383
GACCCGTC	-0.247
AGGGCTGG	-0.176
AACATATA	0.0997
CTAAGTTC	0.00137

Sequence	PBM E-score
GGAGATCC	-0.25
AATGTCTA	0.0916
TTGCAAAA	-0.0287
CACCGACC	-0.104
AATGTTAA	0.0879
ACTGCGAT	-0.0641
AGACCGCA	-0.14
CAAGCAAG	-0.141
AGCTCCAA	-0.0295
GGCCTCGA	-0.299
CCTGGCAA	-0.0805
GTCACTAA	0.228
ATTACCGC	0.044
TCAAGGGA	-0.24
AGGCGCGA	-0.243
ATCAACCC	0.117
GCTTCCCC	-0.287
TAGTCTCA	-0.0177
AAGGGTGC	-0.227
ACCCCACA	-0.176
CATTTCCG	0.0405
ACCCAGAG	-0.108
CTACGACA	0.199
CCCGCCAG	-0.198
CAAAAAGA	0.15

Sequence	PBM E-score
CGTTAGGC	-0.0977
AACCTACT	-0.0934
CTCGGAGC	-0.137
AATAAGCG	-0.117
CCCGTAGC	-0.291
CTACACAC	0.0581
AATTCACA	0.218
CAACGTTA	0.257
GACGGGGC	-0.172
CGAAGTGC	0.244
GTATTCCA	0.0354
TTACTAAA	0.249
CCTAGGCG	-0.187
GTCAGAAA	0.0323
ACACAACC	-0.169
CATGATTC	-0.0995
AATAAAAC	0.201
GGCAAGTA	-0.127
ATAATGGA	0.068
CGTGCAGC	0.0961
ACCCATTC	-0.0447
GGGGGCCA	-0.308
